Source: ChEMBL document CHEMBL5724801, “EUbOPEN Chemogenomics Library - Multiplex” (2024)

What was measured:
Format in all cases: toxicity, cell-based
[1] = tested on: Fibroblast; assay: Multiplex assay against human fibroblast
Procedure, shortened: (§1)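 Imaging took place on a CQ1 microscope at 37°C and 5% CO2 once compound had been added to live cells stained at seeding with Hoechst33342, BioTracker Green Microtubule Cytoskeleton Dye, MitoTracker Red and Annexin V Alexa Fluor 680. CellPathfinder machine-learning gating classed cells as Hoechst high-intensity objects or normal cells, classed normal cells as having healthy, pyknosed or fragmented nuclei, and classed pyknosed cells as mitotic or apoptotic. Tubulin, mitochondrial-mass and membrane-permeability phenotypes are per cents of the healthy-nucleus cells.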

[2] = tested on: HEK-293T; assay: Multiplex assay against HEK293T; details: human; procedure, shortened: as §1
[3] = tested on: U2OS; assay: Multiplex assay against U2OS; details: human; procedure, shortened: as §1
[4] = 12 h, 1 µM, compound concentration 1 uM
[5] = 24 h, 1 µM, compound concentration 1 uM
[6] = 24 h, 10 µM, compound concentration 10 uM
[7] = 48 h, 1 µM, compound concentration 1 uM
[8] = 12 h, 10 µM, compound concentration 10 uM
[9] = 48 h, 10 µM, compound concentration 10 uM

SMILES | Population Apoptotic (%) [1, 5] | Population Mitochondria Different-Phenotype (%) [1, 7] | Population Healthy Nuclei (%) [2, 4] | Population Tubulin-Different-Phenotype (%) [2, 4] | Population Healthy Nuclei (%) [2, 8] | Population Healthy Nuclei (%) [2, 6] | Population Apoptotic (%) [2, 7] | Population Pyknosed Nuclei (%) [2, 7] | Population Tubulin-Different-Phenotype (%) [2, 7] | Total Cell Count [2, 7] | Population Tubulin-Different-Phenotype (%) [2, 9] | Total Cell Count [2, 9] | Population Mitochondria Different-Phenotype (%) [3, 8] | Population Mitochondria Different-Phenotype (%) [3, 5] | Population Mitochondria Different-Phenotype (%) [3, 6] | Total Cell Count [3, 7] | Population Mitochondria Different-Phenotype (%) [1, 9] | Population Healthy Nuclei (%) [2, 5] | Total Cell Count [2, 5] | Total Cell Count [3, 5] | also measured
CN(C)Cc1cccc(NC(=C2C(=O)Nc3cc(C(=O)N(C)C)ccc32)c2ccccc2)c1 | 6.9% and 25% | 18.86% and 3.59% | 47.64% and 13.29% | 6.93% and 36.84% | 50.65% and 13.79% | 68.75% and 22.67% | 1.9% and 20.24% | 9.47% and 36.84% | 3.1% and 40.3% | 1110 and 231 | 7.61% and 64.79% | 560 and 150 | 5.45% and 48.44% | 0.39% and 11.93% | 5.98% and 64.08% | 1000 and 330 | – | – | – | – | Population Apoptotic (%) [1, 4]: 8.93% and 32.35%; Population Fragmented Nuclei (%) [1, 6]: 14.92% and 4.36%; Population Fragmented Nuclei (%) [2, 4]: 20.28% and 1.4%; Population Fragmented Nuclei (%) [2, 5]: 16.72% and 3.09%; Population Pyknosed Nuclei (%) [2, 5]: 14.63% and 65.46%; Population Membrane Permeable-Phenotype (%) [3, 9]: 11.11% and 34.55%
C=CC(=O)Nc1cc(Nc2nccc(-n3cc(CN(C)C)c(-c4ccccc4)n3)n2)c(OC)cc1N1CCOCC1 [LAZERTINIB] | 10% and 47.37% | – | 43.77% and 14.05% | – | – | – | – | 14.43% and 53.24% | 3.28% and 68.97% | 888 and 141 | 25.85% and 80% | – | 19.03% and 73.02% | 6.13% and 51.89% | 16.79% and 73.21% | 534 and 160 | 53.42% and 14.41% | 66.59% and 17.21% | 442 and 122 | – | Population Apoptotic (%) [1, 4]: 2.7% and 15.91%; Population Fragmented Nuclei (%) [1, 6]: 19.21% and 6.4%; Population Pyknosed Nuclei (%) [1, 6]: 43.05% and 12.07%; Population Pyknosed Nuclei (%) [1, 9]: 23.94% and 7.23%; Total Cell Count [1, 9]: 142 and 429; Population Mitochondria Different-Phenotype (%) [2, 6]: 82.35% and 0%; Population Mitochondria Different-Phenotype (%) [3, 4]: 1.06% and 41.75%; Total Cell Count [3, 8]: 391 and 104; Total Cell Count [3, 6]: 406 and 103; Population Membrane Permeable-Phenotype (%) [3, 7]: 7.51% and 26.97%; Population Mitochondria Different-Phenotype (%) [3, 7]: 2.58% and 38.2%; Population Mitochondria Different-Phenotype (%) [3, 9]: 12.85% and 55.88%; Total Cell Count [3, 9]: 486 and 113
C[C@H](C[C@H](N)C(=O)O)C(=O)O [2S,4R-4-METHYLGLUTAMATE] | 9.09% and 31.25% | 13.04% and 2.67% | 61.19% and 13.33% | 4.39% and 50% | 54.39% and 11.63% | – | 6.52% and 23.68% | 10.11% and 38.97% | 0.93% and 43.86% | 1365 and 200 | 0.62% and 14.52% | 1241 and 323 | – | – | – | 994 and 281 | 15.92% and 2.84% | – | 555 and 162 | 545 and 166 | Population Membrane Permeable-Phenotype (%) [1, 8]: 12.39% and 1.63%; Population Pyknosed Nuclei (%) [2, 5]: 22.6% and 70.99%; Population Pyknosed Nuclei (%) [2, 6]: 18.38% and 58.71%; Total Cell Count [3, 4]: 417 and 125
Nc1nccc(-c2ccn3c(N)nccc23)n1 | – | – | – | 4.2% and 33.33% | – | – | – | 5.39% and 32.21% | 2.41% and 38.95% | 929 and 150 | 1.31% and 28.87% | 536 and 143 | – | – | – | 1017 and 265 | 11.21% and 0.92% | – | 471 and 144 | 586 and 175 | Population Fragmented Nuclei (%) [1, 4]: 15.53% and 3.21%; Population Tubulin-Different-Phenotype (%) [1, 7]: 4.57% and 18.62%; Population Tubulin-Different-Phenotype (%) [1, 9]: 5.14% and 19.72%; Population Tubulin-Different-Phenotype (%) [2, 8]: 5.15% and 20.59%; Total Cell Count [3, 4]: 439 and 138; Total Cell Count [3, 9]: 1003 and 290
Cn1ncnc1COc1nn2c(-c3cc(F)ccc3F)nnc2cc1C(C)(C)C | 5.88% and 39.13% | – | 44.34% and 9.42% | 7.09% and 38.46% | – | 69.39% and 19.01% | – | 11.69% and 49.43% | 2.65% and 46.43% | 1095 and 177 | 10.91% and 58.93% | 627 and 208 | 0.34% and 11.85% | – | – | 1079 and 324 | – | 70.09% and 18.3% | 468 and 153 | 627 and 199 | Population Fragmented Nuclei (%) [1, 8]: 15.7% and 4.9%; Population Apoptotic (%) [1, 7]: 31.58% and 8.7%; Population Tubulin-Different-Phenotype (%) [1, 7]: 2.8% and 21.59%; Population Mitochondria Different-Phenotype (%) [2, 8]: 36.89% and 9.09%
Cc1[nH]nc2ccc(-c3cncc(OCC(N)Cc4c[nH]c5ccccc45)c3)cc12 (configuration not stated) | – | – | 29.11% and 8.23% | 6.93% and 38.46% | – | – | – | – | 1.52% and 25% | – | – | – | – | 0.79% and 22.22% | – | – | – | 19.81% and 4.61% | – | – | Population Mitotic Cells (%) [1, 6]: 34.06% and 6.62%; Population Mitotic Cells (%) [1, 9]: 59.57% and 4.55%; Population Mitochondria Different-Phenotype (%) [2, 4]: 31.68% and 7.69%; Population Tubulin-Different-Phenotype (%) [2, 8]: 66.67% and 20%; Population Tubulin-Different-Phenotype (%) [2, 5]: 11.11% and 42.86%; Population Mitotic Cells (%) [2, 6]: 19.7% and 3.36%; Population Mitochondria Different-Phenotype (%) [3, 4]: 1.78% and 36.11%; Population Membrane Permeable-Phenotype (%) [3, 6]: 0% and 50%; Population Membrane Permeable-Phenotype (%) [3, 7]: 0.88% and 14.29%
O=C1CSC(=O)N1C(CCc1ccncc1)COc1ccc(-c2cccc([N+](=O)[O-])c2)cc1 (configuration not stated) | – | – | 46.54% and 8.82% | 12.4% and 41.67% | – | – | – | 15.22% and 48.55% | 2.59% and 39.06% | 749 and 138 | – | – | – | – | 27.67% and 87.62% | – | – | 62.14% and 17.97% | 385 and 128 | – | Population Apoptotic (%) [1, 9]: 38.1% and 12.5%; Population Tubulin-Different-Phenotype (%) [2, 5]: 33.19% and 8.7%; Population Healthy Nuclei (%) [2, 9]: 42.79% and 10.92%; Population Mitochondria Different-Phenotype (%) [3, 9]: 11.53% and 58.88%; Total Cell Count [3, 9]: 545 and 170
CCOC(=O)c1cnn(-c2ccc(NC(=O)C(Cl)=C(Cl)Cl)cc2)c1C(F)(F)F | – | 24.22% and 2.06% | 55.46% and 17.91% | 4.43% and 33.33% | – | – | 5.13% and 18.09% | 11.69% and 48.21% | 1.57% and 37.11% | 1337 and 195 | – | – | 3.7% and 42.86% | – | – | – | – | – | 557 and 160 | – | Population Mitochondria Different-Phenotype (%) [1, 8]: 3.85% and 22.58%; Population Mitotic Cells (%) [1, 6]: 62.24% and 19.35%; Population Mitotic Cells (%) [1, 9]: 64.52% and 16.13%; Population Tubulin-Different-Phenotype (%) [2, 8]: 10.53% and 61.54%; Population Tubulin-Different-Phenotype (%) [2, 5]: 19.26% and 5.88%; Population Mitotic Cells (%) [2, 6]: 36.78% and 9.42%; Population Mitotic Cells (%) [2, 9]: 46.42% and 4.14%; Population Mitotic Cells (%) [3, 9]: 13.37% and 1.82%
CC(C)CNc1nc(N2CCN(CC3CCCOC3)CC2)ncc1C(=O)NCc1ccccc1 (configuration not stated) | – | – | 44.16% and 13.99% | – | 30.36% and 8.03% | 42.94% and 14.18% | – | 15.52% and 48.42% | 3.69% and 50.59% | 973 and 190 | – | – | – | 1.99% and 35.85% | – | 793 and 173 | – | 63.91% and 19.74% | 497 and 152 | 467 and 139 | Population Mitotic Cells (%) [1, 4]: 66% and 19.78%; Population Tubulin-Different-Phenotype (%) [1, 4]: 14.29% and 70.97%; Population Membrane Permeable-Phenotype (%) [1, 8]: 7.69% and 26.32%; Population Mitotic Cells (%) [1, 8]: 60.32% and 12.75%; Population Fragmented Nuclei (%) [1, 5]: 27.52% and 8.51%; Population Mitotic Cells (%) [1, 5]: 67.39% and 18.42%; Population Membrane Permeable-Phenotype (%) [1, 6]: 2.78% and 35.14%; Population Membrane Permeable-Phenotype (%) [1, 9]: 2.38% and 20%; Population Mitochondria Different-Phenotype (%) [2, 4]: 35% and 10%; Population Mitochondria Different-Phenotype (%) [3, 4]: 1.24% and 35%; Population Mitochondria Different-Phenotype (%) [3, 7]: 0.73% and 17.99%

The source holds more than one record for some entries. This is not the full list of results. An entry can have further records. Values given together are repeated measurements (runs, samples, wells, individuals or studies).
